# Data reported in patent publication US20240294594A1 (CYTUNE PHARMA, published 2024).
# T1: IL-2/IL-15Rβγ (on cells) (UniProt P14784 27-551; P31785 23-369, limits assumed)
# T1 sequence (looked up) 1: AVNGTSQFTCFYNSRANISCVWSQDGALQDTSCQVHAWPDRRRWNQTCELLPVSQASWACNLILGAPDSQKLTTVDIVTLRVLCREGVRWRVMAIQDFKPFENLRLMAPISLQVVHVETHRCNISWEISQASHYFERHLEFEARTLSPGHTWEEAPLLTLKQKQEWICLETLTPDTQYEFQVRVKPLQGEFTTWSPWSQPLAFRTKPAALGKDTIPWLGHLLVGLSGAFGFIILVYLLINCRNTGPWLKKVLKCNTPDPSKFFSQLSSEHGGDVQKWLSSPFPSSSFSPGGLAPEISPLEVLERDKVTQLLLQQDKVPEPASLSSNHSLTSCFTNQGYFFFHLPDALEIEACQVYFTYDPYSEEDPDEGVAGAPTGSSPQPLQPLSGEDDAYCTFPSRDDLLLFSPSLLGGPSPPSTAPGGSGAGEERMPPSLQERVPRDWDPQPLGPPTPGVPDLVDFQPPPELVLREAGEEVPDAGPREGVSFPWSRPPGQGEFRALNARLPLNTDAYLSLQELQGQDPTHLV
# T1 sequence (looked up) 2: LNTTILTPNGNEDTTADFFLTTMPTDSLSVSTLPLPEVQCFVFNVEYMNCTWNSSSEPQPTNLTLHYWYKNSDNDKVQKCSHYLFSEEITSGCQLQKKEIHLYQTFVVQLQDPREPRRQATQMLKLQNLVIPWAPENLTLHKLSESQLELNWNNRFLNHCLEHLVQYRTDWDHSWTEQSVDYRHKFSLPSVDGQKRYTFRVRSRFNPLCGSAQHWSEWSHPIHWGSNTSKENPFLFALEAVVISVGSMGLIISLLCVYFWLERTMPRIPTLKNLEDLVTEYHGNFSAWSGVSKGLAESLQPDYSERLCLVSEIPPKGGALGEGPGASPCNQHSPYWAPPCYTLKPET
# Target: T1, IL-2/IL-15Rβγ (on cells)
# Assay: cell-based or functional assay
Binder,EC50 kit225 cells pM,Relative potency/kit225 cells
PEM LE-RLI-AD x1 (other) heavy 1: QVQLVQSGVEVKKPGASVKVSCKASGYTFTNYYMYWVRQAPGQGLEWMGGINPSNGGTNFNEKFKNRVTLTTDSSTTTAYMELKSLQFDDTAVYYCARRDYRFDMGFDYWGQGTTVTVSSASTKGPSVFPLAPCSRSTSESTAALGCLVKDYFPEPVTVSWNSGALTSGVHTFPAVLQSSGLYSLSSVVTVPSSSLGTKTYTCNVDHKPSNTKVDKRV[not shown - human IgG4 Fc with S228P L235E T366W (EU numbers)]ITCPPPMSVEHADIWVKSYSLYSRERYICNSGFKRKAGTSSLTECVLNKATNVAHWTTPSLKCIRDPALVHQRPAPPSGGSGGGGSGGGSGGGGSGGNWVNVISDLAKIEDLIQSMHIDATLYTESDVHPSCKVTAMKCFLLELQVISLESGDASIHDTVENLIILANNSLSSNAQVTESGCKECEELEEKNIKEFLDSFVHIVQMFINTS heavy 2: QVQLVQSGVEVKKPGASVKVSCKASGYTFTNYYMYWVRQAPGQGLEWMGGINPSNGGTNFNEKFKNRVTLTTDSSTTTAYMELKSLQFDDTAVYYCARRDYRFDMGFDYWGQGTTVTVSSASTKGPSVFPLAPCSRSTSESTAALGCLVKDYFPEPVTVSWNSGALTSGVHTFPAVLQSSGLYSLSSVVTVPSSSLGTKTYTCNVDHKPSNTKVDKRVESKYGPPCPPCPAPEFEGGPSVFLFPPKPKDTLMISRTPEVTCVVVDVSQEDPEVQFNWYVDGVEVHNAKTKPREEQFNSTYRVVSVLTVLHQDWLNGKEYKCKVSNKGLPSSIEKTISKAKGQPREPQVYTLPPSQEEMTKNQVSLSCAVKGFYPSDIAVEWESNGQPENNYKTTPPVLDSDGSFFLVSRLTVDKSRWQEGNVFSCSVMHEALHNHYTQKSLSLSLG light: EIVLTQSPATLSLSPGERATLSCRASKGVSTSGYSYLHWYQQKPGQAPRLLIYLASYLESGVPARFSGSGSGTDFTLTISSLEPEDFAVYYCQHSRDLPLTFGGGTKVEIKRTVAAPSVFIFPPSDEQLKSGTASVVCLLNNFYPREAKVQWKVDNALQSGNSQESVTEQDSKDSTYSLSSTLTLSKADYEKHKVYACEVTHQGLSSPVTKSFNRGEC,603 pM,8.5%
PEM LE-RLI-AD x2 (other) heavy: QVQLVQSGVEVKKPGASVKVSCKASGYTFTNYYMYWVRQAPGQGLEWMGGINPSNGGTNFNEKFKNRVTLTTDSSTTTAYMELKSLQFDDTAVYYCARRDYRFDMGFDYWGQGTTVTVSSASTKGPSVFPLAPCSRSTSESTAALGCLVKDYFPEPVTVSWNSGALTSGVHTFPAVLQSSGLYSLSSVVTVPSSSLGTKTYTCNVDHKPSNTKVDKRV[not shown - human IgG4 Fc with changes]ITCPPPMSVEHADIWVKSYSLYSRERYICNSGFKRKAGTSSLTECVLNKATNVAHWTTPSLKCIRDPALVHQRPAPPSGGSGGGGSGGGSGGGGSGGNWVNVISDLAKIEDLIQSMHIDATLYTESDVHPSCKVTAMKCFLLELQVISLESGDASIHDTVENLIILANNSLSSNAQVTESGCKECEELEEKNIKEFLDSFVHIVQMFINTS light: EIVLTQSPATLSLSPGERATLSCRASKGVSTSGYSYLHWYQQKPGQAPRLLIYLASYLESGVPARFSGSGSGTDFTLTISSLEPEDFAVYYCQHSRDLPLTFGGGTKVEIKRTVAAPSVFIFPPSDEQLKSGTASVVCLLNNFYPREAKVQWKVDNALQSGNSQESVTEQDSKDSTYSLSSTLTLSKADYEKHKVYACEVTHQGLSSPVTKSFNRGEC,122 pM,42%

# The next lines start with the values.
EC50 kit225 cells pM,Relative potency/kit225 cells,Binder
4480 pM,1.1%,PEM LE-RLI-DA x1 (other) heavy 1: QVQLVQSGVEVKKPGASVKVSCKASGYTFTNYYMYWVRQAPGQGLEWMGGINPSNGGTNFNEKFKNRVTLTTDSSTTTAYMELKSLQFDDTAVYYCARRDYRFDMGFDYWGQGTTVTVSSASTKGPSVFPLAPCSRSTSESTAALGCLVKDYFPEPVTVSWNSGALTSGVHTFPAVLQSSGLYSLSSVVTVPSSSLGTKTYTCNVDHKPSNTKVDKRV[not shown - human IgG4 Fc with S228P L235E T366W (EU numbers)]ITCPPPMSVEHADIWVKSYSLYSRERYICNSGFKRKAGTSSLTECVLNKATNVAHWTTPSLKCIRDPALVHQRPAPPSGGSGGGGSGGGSGGGGSGGNWVNVISDLKKIEDLIQSMHIDATLYTESDVHPSCKVTAMKCFLLELQVISLESGDASIHATVENLIILANNSLSSNAQVTESGCKECEELEEKNIKEFLQSFVHIVQMFINTS heavy 2: QVQLVQSGVEVKKPGASVKVSCKASGYTFTNYYMYWVRQAPGQGLEWMGGINPSNGGTNFNEKFKNRVTLTTDSSTTTAYMELKSLQFDDTAVYYCARRDYRFDMGFDYWGQGTTVTVSSASTKGPSVFPLAPCSRSTSESTAALGCLVKDYFPEPVTVSWNSGALTSGVHTFPAVLQSSGLYSLSSVVTVPSSSLGTKTYTCNVDHKPSNTKVDKRVESKYGPPCPPCPAPEFEGGPSVFLFPPKPKDTLMISRTPEVTCVVVDVSQEDPEVQFNWYVDGVEVHNAKTKPREEQFNSTYRVVSVLTVLHQDWLNGKEYKCKVSNKGLPSSIEKTISKAKGQPREPQVYTLPPSQEEMTKNQVSLSCAVKGFYPSDIAVEWESNGQPENNYKTTPPVLDSDGSFFLVSRLTVDKSRWQEGNVFSCSVMHEALHNHYTQKSLSLSLG light: EIVLTQSPATLSLSPGERATLSCRASKGVSTSGYSYLHWYQQKPGQAPRLLIYLASYLESGVPARFSGSGSGTDFTLTISSLEPEDFAVYYCQHSRDLPLTFGGGTKVEIKRTVAAPSVFIFPPSDEQLKSGTASVVCLLNNFYPREAKVQWKVDNALQSGNSQESVTEQDSKDSTYSLSSTLTLSKADYEKHKVYACEVTHQGLSSPVTKSFNRGEC
1620 pM,3.1%,PEM LE-RLI-DA x2 (other) heavy: QVQLVQSGVEVKKPGASVKVSCKASGYTFTNYYMYWVRQAPGQGLEWMGGINPSNGGTNFNEKFKNRVTLTTDSSTTTAYMELKSLQFDDTAVYYCARRDYRFDMGFDYWGQGTTVTVSSASTKGPSVFPLAPCSRSTSESTAALGCLVKDYFPEPVTVSWNSGALTSGVHTFPAVLQSSGLYSLSSVVTVPSSSLGTKTYTCNVDHKPSNTKVDKRV[not shown - human IgG4 Fc with changes]ITCPPPMSVEHADIWVKSYSLYSRERYICNSGFKRKAGTSSLTECVLNKATNVAHWTTPSLKCIRDPALVHQRPAPPSGGSGGGGSGGGSGGGGSGGNWVNVISDLKKIEDLIQSMHIDATLYTESDVHPSCKVTAMKCFLLELQVISLESGDASIHATVENLIILANNSLSSNAQVTESGCKECEELEEKNIKEFLQSFVHIVQMFINTS light: EIVLTQSPATLSLSPGERATLSCRASKGVSTSGYSYLHWYQQKPGQAPRLLIYLASYLESGVPARFSGSGSGTDFTLTISSLEPEDFAVYYCQHSRDLPLTFGGGTKVEIKRTVAAPSVFIFPPSDEQLKSGTASVVCLLNNFYPREAKVQWKVDNALQSGNSQESVTEQDSKDSTYSLSSTLTLSKADYEKHKVYACEVTHQGLSSPVTKSFNRGEC
